According to the supplement of paper PMC3334620:
In all, about 33,000 sequences were measured (“E-score (-0.5 to 0.5)”: median about -0.021, highest 2% from about 0.32 on). The list shows a part of the results.

molecular target: T1, Zap1 (UniProt P47043); test: PBM E-score (8-mer binding enrichment) (E-score (-0.5 to 0.5)); higher = stronger / more preferred TF binding; most listed sequences are background and not binding sites; details: protein concentration: 200 nM; construct: GST-full length
T1 sequence: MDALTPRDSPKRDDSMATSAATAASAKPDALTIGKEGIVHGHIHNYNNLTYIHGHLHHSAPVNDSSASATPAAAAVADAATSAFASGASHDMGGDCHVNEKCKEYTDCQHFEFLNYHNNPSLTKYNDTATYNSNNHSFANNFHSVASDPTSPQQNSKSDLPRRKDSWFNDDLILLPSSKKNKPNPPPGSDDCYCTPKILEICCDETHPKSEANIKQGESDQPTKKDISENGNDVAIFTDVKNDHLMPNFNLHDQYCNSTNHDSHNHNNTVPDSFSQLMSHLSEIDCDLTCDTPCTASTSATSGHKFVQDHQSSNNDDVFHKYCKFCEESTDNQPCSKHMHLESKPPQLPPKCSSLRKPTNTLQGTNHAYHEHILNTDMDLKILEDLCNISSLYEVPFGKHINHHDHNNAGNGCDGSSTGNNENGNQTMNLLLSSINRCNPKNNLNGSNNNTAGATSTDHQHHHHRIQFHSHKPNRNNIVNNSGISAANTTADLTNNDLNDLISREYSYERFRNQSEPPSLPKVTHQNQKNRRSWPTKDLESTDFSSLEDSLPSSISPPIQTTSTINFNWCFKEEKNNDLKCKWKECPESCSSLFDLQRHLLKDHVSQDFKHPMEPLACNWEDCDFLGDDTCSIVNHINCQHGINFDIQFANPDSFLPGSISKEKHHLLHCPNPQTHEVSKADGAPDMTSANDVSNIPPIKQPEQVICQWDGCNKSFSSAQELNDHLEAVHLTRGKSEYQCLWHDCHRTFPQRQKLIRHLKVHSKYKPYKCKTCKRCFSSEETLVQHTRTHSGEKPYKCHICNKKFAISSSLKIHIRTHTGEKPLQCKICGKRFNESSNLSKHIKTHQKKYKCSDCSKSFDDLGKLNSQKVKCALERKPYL
Procedure, shortened: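 Bound GST-tagged yeast transcription factors, applied at about 100-200 nM to double-stranded universal all-10-mer Agilent arrays, were detected with fluorescent anti-GST. Scans were normalised with masliner. A modified Wilcoxon-Mann-Whitney statistic, the E-score, was assigned to each ungapped eight-base word pooled with its reverse complement by the Universal PBM Analysis Suite.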

Sequence | PBM E-score
GCGCCGTA | -0.0278
ACTTATAA | 0.136
TCTGAGAA | -0.0814
ATAAGTCA | 0.161
CAAGCCCG | -0.266
AGTAGCAG | -0.0921
ATCGCGAG | 0.13
CCAATACA | -0.0592
GATTGTAC | -0.134
GAAGTTAC | 0.175
CACCATAA | 0.0248
TACCAGCA | 0.0701
ATCATTCG | 0.0757
GGGAGCAC | -0.166
GTCTAGGA | -0.27
AGGTGTGG | -0.182
ACCTGTGA | 0.182
GTATTTTA | 0.224
AGATGGCG | -0.113
AGATACGG | 0.0225
TAAAGGGA | 0.145
AAGTCCGA | -0.296

Sequence | PBM E-score
GATATAGC | -0.0772
CAATCGAA | 0.0619
CAAGCCCA | -0.295
GTTTCTCA | -0.0604
TAGAGGCA | -0.0851
CACCATCA | -0.088
AAGCTGGA | -0.0922
AACTGGTG | 0.0774
AAGAGACC | 0.129
GGGATGTA | -0.0819
CTCATGGA | 0.0246
ATCCAATG | -0.237
ACGACCGA | -0.116
GTATTGAC | -0.0601
GGGGAAAC | 0.0976
GACACTCC | -0.118
CCAGGAGC | -0.263
GACACATC | 0.0208
AAGAGCCA | -0.0471
CCTTTTAA | 0.119
CTGCGATA | 0.159
AAGGGCAC | -0.0159

Sequence | PBM E-score
GCATTGCA | -0.0539
CGCGGCTA | 0.0396
CGGAGTCC | 0.0173
CTCTAAAG | 0.1
AGCTCATG | -0.182
ACTCATAA | 0.00507
ACGCAACC | 0.316
CTGACGCC | -0.16
AAAGGTAG | 0.247
CTGCCCCC | -0.356
ACCACCTA | 0.0272
ACGCGGTC | 0.155
CACTGAAC | 0.135
ATCCCTAG | 0.0856
AGTATATA | 0.284
GCGATGGA | 0.0884
AGGACTCC | -0.232
AGCTTGCC | -0.356
AACGAGCC | -0.189
CGCCCCAC | -0.072
CCACTAGA | -0.11
CCCACGAG | -0.0323

Sequence | PBM E-score
AGACTGTC | -0.334
CCGGCTAC | -0.0341
ACGTGGAG | -0.208
CCTCTTCG | -0.137
ATGCCCTA | -0.0835
CTTGCCTC | -0.105
CCAAATAG | 0.111
CGGTGTAC | 0.0599
CATAAATA | 0.00367
CTGAAAAC | 0.0214
ATACTGAC | 0.111
TCGAACGA | -0.212
GAGGTATC | 0.219
AGCTAGAG | -0.167
CGGCTTTC | -0.0955
ACCCCTCT | 0.174
ACTCCTTC | -0.358
ACCGTGTG | 0.147
GAGGTCTA | 0.175
GTTAGGCA | -0.125
